Test results reported in the supplement of paper PMC6609913.
Counter-ions that a name gives are not always drawn. ± gives the standard deviation of the averaged measurements. Over roughly 1,300 compounds, “normalised cell viability” has its median near 1; the lowest 2% begin near 0.14. This is one part of the list.

Test system: V-C8 (BRCA2-deficient hamster cells)
Assay: normalised cell viability (fraction of plate median); higher = more viable cells (less toxic)
Details: 5 µM
Summary of the method: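 Hamster V-C8 cells lacking BRCA2 and V-C8 cells with BRCA2 restored were seeded in 96-well plates. Library drugs (10 mM DMSO stocks) were added 24 h later at 5 μM in 100 μl medium, next to DMSO control wells, for 3 days (screen 1) or 6 days (screen 2). Cell viability was read by resazurin assay, median-plate normalised (modified robust per cent of sample), and triplicate wells were averaged.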

| SMILES | normalised cell viability (treatment time: 3 days) | normalised cell viability (treatment time: 6 days) |
| --- | --- | --- |
| O=C(O)/C=C/c1ccc(Cn2ccnc2)cc1 [Ozagrel hydrochloride] | 1 ± 0.036 | 1.05 ± 0.017 |
| O=C(O)COC(=O)Cc1ccccc1Nc1c(Cl)cccc1Cl [Aceclofenac] | 0.96 ± 0.052 | 1 ± 0.084 |
| Cc1cnc(NC(=O)C2=C(O)c3ccccc3S(=O)(=O)N2C)s1 [Meloxicam] | 0.991 ± 0.03 | 1.07 ± 0.14 |
| CC1CC(OC(=O)C(O)c2ccccc2)CC(C)(C)N1C (stereo unspecified) [Eucatropine hydrochloride] | 0.835 ± 0.071 | 0.9509 ± 0.0083 |
| CCN1CCC[C@H]1CNC(=O)c1c(OC)ccc(Br)c1OC [Remoxipride Hydrochloride] | 1.01 ± 0.021 | 1.08 ± 0.027 |
| CCN1CCN(c2cc3c(cc2F)c(=O)c(C(=O)O)cn3C2CC2)CC1 [Enrofloxacin] | 0.973 ± 0.026 | 0.925 ± 0.069 |
| Cc1nnc(NS(=O)(=O)c2ccc(N)cc2)s1 [Sulfamethizole] | 1.06 ± 0.038 | 1.1 ± 0.03 |
| Nc1cc(C(Cl)=C(Cl)Cl)c(S(N)(=O)=O)cc1S(N)(=O)=O [Clorsulon] | 1.02 ± 0.022 | 0.999 ± 0.051 |
| CC[C@H](C)C(=O)O[C@H]1CCC=C2C=C[C@H](C)[C@H](CC[C@@H]3C[C@@H](O)CC(=O)O3)[C@H]21 [Mevastatin] | 0.23 ± 0.011 | 0.229 ± 0.0063 |
| COc1c2occc2c(OC)c2c(=O)cc(C)oc12 [Khellin] | 1.04 ± 0.094 | 1.17 ± 0.051 |
| CC(=O)OCC(CCn1cnc2cnc(N)nc21)COC(C)=O [Famciclovir] | 1.07 ± 0.061 | 1.04 ± 0.014 |
| NNc1nncc2ccccc12 [Hydralazine hydrochloride] | 0.9847 ± 0.0028 | 1.03 ± 0.027 |
| CN1CCN(c2c(F)cc3c(=O)c(C(=O)O)cn(CCF)c3c2F)CC1 [Fleroxacin] | 0.982 ± 0.046 | 0.977 ± 0.051 |
| C[C@H](CCC(=O)O)[C@H]1CC[C@H]2[C@@H]3[C@H](O)C[C@@H]4C[C@H](O)CC[C@]4(C)[C@H]3CC[C@]12C [Chenodiol] | 1.08 ± 0.025 | 1.21 ± 0.34 |
| CN1CCN(CCCN2c3ccccc3Sc3ccc(Cl)cc32)CC1 [Prochlorperazine dimaleate] | 0.834 ± 0.081 | 0.812 ± 0.075 |
| Cc1nc(=O)c2cc(CN(C)c3ccc(C(=O)N[C@@H](CCC(=O)O)C(=O)O)s3)ccc2[nH]1 [Raltitrexed] | 0.332 ± 0.028 | 0.432 ± 0.075 |
| O=c1oc2ccccc2c(O)c1Cc1c(O)c2ccccc2oc1=O [Dicumarol] | 1.01 ± 0.047 | 1.08 ± 0.08 |

| SMILES | normalised cell viability (treatment time: 3 days) | normalised cell viability (treatment time: 6 days) |
| --- | --- | --- |
| CC(C)NC[C@@H](O)COc1cccc2ccccc12 [(R)-Propranolol hydrochloride] | 0.914 ± 0.085 | 1.06 ± 0.085 |
| CCN(CC)CCc1nc(-c2ccccc2)no1 [Oxalamine citrate salt] | 0.986 ± 0.061 | 0.933 ± 0.14 |
| CNCC(O)c1ccc(OC(=O)C(C)(C)C)c(OC(=O)C(C)(C)C)c1 (stereo unspecified) [Dipivefrin hydrochloride] | 0.831 ± 0.066 | 0.954 ± 0.069 |
| CC(C)NCC(O)c1ccc(O)c(O)c1 (single isomer, unassigned; (+)) [(+)-Isoproterenol (+)-bitartrate salt] | 1.028 ± 0.0063 | 0.926 ± 0.063 |
| CC(NCCC(c1ccccc1)c1ccccc1)c1ccccc1 (stereo unspecified) [Fendiline hydrochloride] | 0.197 ± 0.018 | 0.496 ± 0.16 |
| O=c1[nH]c(=O)n(C2CCCO2)cc1F (stereo unspecified) [Tegafur] | 1.04 ± 0.044 | 1.15 ± 0.13 |
| Cc1c(N(C)CS(=O)(=O)O)c(=O)n(-c2ccccc2)n1C [Dipyrone] | 0.914 ± 0.028 | 0.876 ± 0.052 |
| CN(C)c1nc(N(C)C)nc(N(C)C)n1 [Altretamine] | 1.05 ± 0.052 | 1.03 ± 0.057 |
| Nc1nc2n[nH]nc2c(=O)[nH]1 [Azaguanine-8] | 0.846 ± 0.048 | 0.857 ± 0.029 |
| CC(C)NCC(O)c1ccc2ccccc2c1 (stereo unspecified) [Pronethalol hydrochloride] | 1.04 ± 0.3 | 1.07 ± 0.042 |
| C[C@H]1C[C@@H]2[C@H]([C@@H](O)C[C@@]3(C)[C@H]2CC[C@]3(O)C(=O)CO)[C@@]2(C)C=CC(=O)C=C12 [Methylprednisolone, 6-alpha] | 1.02 ± 0.068 | 1.01 ± 0.061 |
| COc1ccccc1OCC(O)CN1CCN(CC(=O)Nc2c(C)cccc2C)CC1 (stereo unspecified) [Ranolazine] | 1.04 ± 0.054 | 0.967 ± 0.086 |
| COc1cc([C@@H]2c3cc4c(cc3[C@@H](O[C@@H]3O[C@@H]5CO[C@@H](C)O[C@H]5[C@H](O)[C@H]3O)[C@H]3COC(=O)[C@H]23)OCO4)cc(OC)c1O [Etoposide] | 0.155 ± 0.0057 | 0.133 ± 0.017 |
| CCCNCC(O)COc1ccccc1C(=O)CCc1ccccc1 (stereo unspecified) [Propafenone hydrochloride] | 0.29 ± 0.019 | 0.388 ± 0.014 |
| COc1ccc(C2CNC(=O)C2)cc1OC1CCCC1 (stereo unspecified) [Rolipram] | 1.01 ± 0.044 | 1.02 ± 0.026 |
| c1ccc([C@H]2CN3CCSC3=N2)cc1 [Levamisole hydrochloride] | 1.03 ± 0.02 | 1.02 ± 0.032 |
